Test results reported in PubChem BioAssay AID624296 (National Center for Advancing Translational Sciences (NCATS), 2012).
Hit rate of the full screen: of about 350,000 compounds, about 9,900 (2.8%) were called active. Inconclusive means that the source gave no clear call. Such entries were picked first, then a sample of the others. Calls come from the whole dose curve; as a rule, active = well fitted activation curve with a large enough effect; inconclusive = small, poorly fitted or top-dose-only effect; inactive = no such curve, though single readings can be large or run the other way. Potencies of inconclusive entries are left out as doubtful fits.

test: A quantitative high throughput screen for small molecules that induce DNA re-replication in MCF 10a normal breast cells.; note: nearly all actives have a fitted effect of over 50% in size; for activity, positive = re-replication: % of control where 0% means no effect; conditions: MCF 10A DNA re-replication, Hoechst nuclear intensity, 48 h; activity, positive = re-replication: at 46.1 µM (top of the series)
Potency is the fitted concentration of half-maximal effect; tags give direction and shape of the fitted curve.

| SMILES | Potency | activity, positive = re-replication |
| --- | --- | --- |
| CCn1c(=O)c(C(=O)Nn2c(C)nc3ccccc3c2=O)c(O)c2ccccc21 | inconclusive [activator, single point] | – |
| O=C1CCC(=O)N1OCCCOc1ccc(Br)cc1Cl | – | inactive: -2.38% |
| COc1ccc(NC(=O)Cn2nnc(C(=O)NCc3ccc4c(c3)OCO4)c2N)cc1 | – | inactive: 7.38% |
| O=C(NCc1ccon1)C1CCC(=O)N(CCc2ccc(Cl)cc2)C1 (configuration not stated) | – | inactive: 4.77% |
| COC(=O)CNC(=O)C1CCN(S(=O)(=O)c2cccc3nsnc23)CC1 | inconclusive [activator, single point] | – |
| Cc1ccccc1-n1c([C@@H]2C[C@H]2c2ccccc2)n[nH]c1=S | – | inactive: -2.34% |
| NS(=O)(=O)c1ccc(-c2c(-c3ccccc3)sc3ccccc23)cc1 | inconclusive [activator, single point] | – |
| CCc1nnc(NC(=O)c2cnccn2)s1 | active: 18.4 µM | – |
| N#Cc1ccc(CSc2nnc(-c3ccccn3)n2-c2ccccc2)cc1 | inconclusive [activator, partial curve, poor fit] | – |
| NNC(=O)c1ccc(N2CCCCCC2)c([N+](=O)[O-])c1 | inconclusive [activator, single point] | – |
| CCN1C(=O)[C@H]2[C@H]3CN=C(SC)N3[C@@](Cc3ccccc3)(C(=O)OC)[C@H]2C1=O | – | inactive: 19.8% |
| Cc1sc(NC(=O)C2=COCCO2)nc1-c1ccc(Cl)cc1 | inconclusive [activator, single point] | – |
| COc1ccc(S(=O)(=O)NCc2ccccn2)cc1NC(=O)c1ccccc1C | active: 3.66 µM | – |
| COc1cccc2cc(C(=O)NCc3ccco3)c(=Nc3ccc(C(=O)O)cc3)oc12 | inconclusive [activator, partial curve, poor fit] | – |
| COc1cc2c(Nc3ccc(Br)cc3F)ncnc2cc1OCC1CCN(C)CC1 | active: 26.6 µM | – |
| COc1ccc(-n2c(-c3ccc(Br)cc3)c[n+]3c2CCC3)cc1 | inconclusive [activator, single point] | – |
| c1ccc(CCNc2nc(-c3ccncc3)nc3ccccc23)cc1 | inconclusive [activator, single point] | – |
| Cc1cc(C(=O)Nc2ccc(N3CCCC3)c(Cl)c2)ccc1[N+](=O)[O-] | – | inactive: -0.508% |
| O=C(CCN1C(=O)/C(=C/C=C/c2ccccc2)SC1=S)Nc1ccccn1 | inconclusive [activator, single point] | – |
| O=C(c1ccco1)N(Cc1cc2ccccc2[nH]c1=O)C1CCCCC1 | – | inactive: -2.56% |
| Cc1ccc(NC(=O)CNCc2cccs2)cc1Br | inconclusive [activator, single point] | – |
| Cc1ccc(NC(=O)C(=Cc2ccc(C(=O)O)cc2)C(=O)Nc2ccc(C)cc2C)c(C)c1 | active: 2.59 µM | – |
| Cc1ccc([N+](=O)[O-])cc1S(=O)(=O)N1CCC(C)CC1 | – | inactive: 1.41% |
| COc1cc2c(cc1OC)CN(C(=O)CCOc1ccccc1)CC2 | inconclusive [activator, single point] | – |

| SMILES | Potency | activity, positive = re-replication |
| --- | --- | --- |
| O=C(NC12CC3CC(CC(C3)C1)C2)c1ccc(Br)o1 | inconclusive [activator, partial curve, poor fit] | – |
| CCCNC(=O)c1ccc2c(=O)n3c(-c4ccc(C)cc4)csc3nc2c1 | inconclusive [activator, full curve, poor fit] | – |
| COc1cccc(C(=O)/C=C2\NCCc3cc(OC)c(OC)cc32)c1 | inconclusive [activator, partial curve, poor fit] | – |
| Cc1ccc(C(=O)Oc2coc(CSc3nnc(NC(=O)C4CC4)s3)cc2=O)cc1C | inconclusive [activator, single point] | – |
| CCCn1c2ccccc2c2nnc(SCC(=O)OCC)nc21 | inconclusive [activator, partial curve, poor fit] | – |
| CCOC(=O)/C(C#N)=C/c1ccc(-c2ccsc2C(=O)OC)o1 | inconclusive [activator, partial curve, poor fit] | – |
| COc1ccc([N+](=O)[O-])c(OC)c1C(=O)NC(=O)Nc1nc(C)cc(C)n1 | inconclusive [activator, full curve, poor fit] | – |
| c1ccc(-c2nc(NCc3cccs3)c3ccccc3n2)cc1 | – | inactive: 21.4% |
| C[C@@H](C(=O)Nc1ccc2ccccc2c1)[C@H]1C[C@]1(C)[C@H](NC(=O)c1cnccn1)c1ccccc1 | – | inactive: 3.42% |
| O=C1CCC(=O)N1c1ccc(S(=O)(=O)Nc2cccc([N+](=O)[O-])c2)cc1 | – | inconclusive: -39.9% [activator] |
| CN1CCN(c2nc(-c3cccc([N+](=O)[O-])c3)nc3ccccc23)CC1 | active: 23.1 µM | – |
| Cc1cccc(N2CCN(C(=O)c3ccc(CS(=O)(=O)c4ccccc4C)o3)CC2C)c1 (configuration not stated) | – | inactive: 3.69% |
| CCOc1ncccc1C(=O)Nc1cc(S(=O)(=O)N2CCOCC2)ccc1OCC(F)(F)F | – | inactive: 13.4% |
| Cc1cc(NC(=O)c2cc(-c3ccncc3)nc3ccccc23)ccc1Br | inconclusive [activator, single point] | – |
| Cc1ccc(NC(=S)NCc2ccc(S(N)(=O)=O)cc2)c(C)c1 | – | inactive: -3.81% |
| O=C(O)Cn1cc(C(=S)N2CCCCC2)c2ccccc21 | active: 0.58 µM | – |
| Cc1ccc(-c2nc(=S)c3c(n2Cc2ccco2)CCCC3)cc1 | inconclusive [activator, single point] | – |
| CCOC(=O)C1Nc2ccccc2C2C(O)C(O)CC12 (configuration not stated) | – | inactive: 19.2% |
| O=C(c1ccc(Cl)cc1)C(CN1CCCCC1)c1ccccc1 (configuration not stated) | inconclusive [activator, single point] | – |
| Cc1ccccc1C(=O)N/N=C1/SCC(=O)N1Cc1ccc2c(c1)OCO2 | – | inactive: -3.75% |
| COC(=O)c1ccc(OCC(=O)c2ccc(C)c(C)c2)cc1 | – | inactive: 12.7% |
| COCCn1c(C)cc(C(=O)COc2ccc(C)nc2[N+](=O)[O-])c1C | inconclusive [activator, single point] | – |
| COc1cc(/C=N/NC(=O)C2c3ccccc3Oc3ccccc32)ccc1O | inconclusive [activator, single point] | – |
